PubChem BioAssay (Tox21)
Several values for one entry are separate records, joined by “and”; a condition that tells them apart may be missing. Identical values can stand only once. The inconclusive results got no clear call from the source; some entries with a clear call stand among them for comparison. Where the call is inconclusive, the potency comes from a doubtful curve fit. More than one record can exist for a structure, and the calls need not agree. Activity calls are given as the source filed them. The call rests on the fitted dose curve; in most records, active means well fitted cell-killing curve with a large enough effect in the repeat runs; inconclusive means weak or mixed curves; inactive means no such curve, though single readings can be large or run the other way. *1 amine or outer side, *2 acyl side, *3 side chain or, on linkers, in order; H or OH if unused. Where a SMILES comes first, the peptide text is derived from it. Bridges are numbered along the chain shown (N, C = ends). Roman numbers before positions name the chains, in order. [ ]: non-standard residue; d: D form. Actinocin(9to1) = Cc1c2oc3c(C)ccc(C(=O)[*:1])c3nc-2c(C(=O)[*:2])c(N)c1=O; NMeV = CN[C@H](C(=O)O)C(C)C; Sar = CNCC(=O)O

Assay: qHTS assay to identify small molecule antagonists of the androgen receptor (AR) signaling pathway - cell viability counter screen (AID 743033; further: nearly all actives have a fitted effect of over 45% in size)
Settings: AR-bla HEK293 viability, CellTiter-Glo luminescence, 16 h; series mostly up to 58.5 µM
Potency means the concentration at half of the fitted maximal effect; tags describe the fitted curve by direction and shape.

SMILES | Potency
COc1cccc(OC)c1C(=O)N[C@@H]1C(=O)N2[C@@H]1SC(C)(C)[C@@H]2C(=O)O | inconclusive: 1.9 µM [cytotoxic, full curve, poor fit]
CNCCCC12CCC(c3ccccc31)c1ccccc12 | active: 43.6 µM
CC(C)(C)NC(=O)[C@@H]1CN(Cc2cccnc2)CCN1C[C@@H](O)C[C@@H](Cc1ccccc1)C(=O)N[C@H]1c2ccccc2C[C@H]1O | inconclusive: 16.9 µM [cytotoxic, partial curve]
CCC(C)c1cc([N+](=O)[O-])cc([N+](=O)[O-])c1OC(=O)OC(C)C (stereo not given) | inconclusive: 9.77 µM [cytotoxic, full curve]
Nc1ccc(N)c(Cl)c1 | inconclusive: 54.9 µM [cytotoxic] and inconclusive: 43.6 µM [cytotoxic, partial curve, poor fit]
NC(=O)c1ccccc1N | inactive
CNc1ccc(O)cc1 | active: 38.8 µM
CN1CCCC(CC2c3ccccc3Sc3ccccc32)C1 (stereo not given) | inconclusive: 0.0018 µM [cytotoxic, full curve, poor fit]
Oc1ccc(Cl)c2cccnc12 | active: 13.4 µM
Cc1c2oc3c(C)ccc(C(=O)N[C@@H]4C(=O)N[C@H](C(C)C)C(=O)N5CCC[C@H]5C(=O)N(C)CC(=O)N(C)[C@@H](C(C)C)C(=O)O[C@@H]4C)c3nc-2c(C(=O)N[C@@H]2C(=O)N[C@H](C(C)C)C(=O)N3CCC[C@H]3C(=O)N(C)CC(=O)N(C)[C@@H](C(C)C)C(=O)O[C@@H]2C)c(N)c1=O (I: T[dV]P[Sar][NMeV] / II: T[dV]P[Sar][NMeV]; ester I:1-I:C, II:1-II:C; linker I:N-II:N via Actinocin(9to1)) | inconclusive: 0.0024 µM [cytotoxic, partial curve, poor fit]
C=CC(=O)OCCn1c(=O)n(CCOC(=O)C=C)c(=O)n(CCOC(=O)C=C)c1=O | active: 15.5 µM
CC#C[C@]1(O)CC[C@H]2[C@@H]3CCC4=CC(=O)CCC4=C3[C@@H](c3ccc(N(C)C)cc3)C[C@@]21C | inconclusive: 4.25 µM [cytotoxic, partial curve, poor fit] and inconclusive: 43.6 µM [cytotoxic, partial curve]
C=C(CC)C(=O)c1ccc(OCC(=O)O)c(Cl)c1Cl | inconclusive: 48.6 µM [cytotoxic, partial curve, poor fit]
O=C1c2ccccc2C(=O)N1CCc1noc(-c2ccc(CN3CCCCCC3)s2)n1 | inconclusive: 44.9 µM [cytotoxic, partial curve]
C=C1CC[C@H](O)C/C1=C\C=C1/CCC[C@]2(C)[C@@H]([C@H](C)CCCC(C)C)CC[C@@H]12 | inconclusive: 21.7 µM [cytotoxic, partial curve]
